The list shows a part of the results.

The test concerns the target T1, MBP-FoxP1dN (Mus musculus, UniProt P58462 326-579).
T1 sequence: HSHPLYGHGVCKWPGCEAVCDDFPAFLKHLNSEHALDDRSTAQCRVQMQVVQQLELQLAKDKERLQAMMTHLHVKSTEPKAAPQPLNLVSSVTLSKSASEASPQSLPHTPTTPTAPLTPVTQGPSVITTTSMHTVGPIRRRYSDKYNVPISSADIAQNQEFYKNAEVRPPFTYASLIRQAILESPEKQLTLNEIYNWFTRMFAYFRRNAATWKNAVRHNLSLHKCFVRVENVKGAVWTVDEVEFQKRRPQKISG
The experiment in a line: PD-seq (MBP pull-down with sequencing); 20 mM Tris-HCl pH 7.5, 100 mM NaCl, 1.5 mM MgCl2, 0.4 uM protein, 0.1 uM dsDNA library, 30 min, room temperature, amylose pull-down; high values mean tight binding. The conditions noted are these: protein: recombinant; tags: His6-MBP; chain copies: 2; dsDNA, one strand shown. The method in brief:
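Binding is given as reads-per-million enrichment, pull-down over input, with replicates pooled. The bait was an N-terminus-lacking mouse FoxP3 or FoxP1 fragment with a His6-MBP tag, expressed in E. coli and used at 0.4 µM with 0.1 µM Klenow-filled degenerate double-stranded DNA library for 30 min at room temperature in Tris pH 7.5 buffer with NaCl and MgCl2. Amylose resin pull-down with three washes was followed by proteinase K release, PCR barcoding and Illumina sequencing.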
As to “GATGATTGTTCTCCCAGCTGATGAATTTGCTTGTTCGAGTAAACAAATTTTCCTAATCTTTCTGTTCAAGCGCCATCTAC”, the binding signal is 1.42 RPM ratio (pull-down/input). “GATGATTGTTCTCCCAGCTGATGAATTTAGCTCATCGAGTAAACAAATTTTCCTAATCTTTCTGTTCAAGCGCCATCTAC”: the binding signal is 0.887 RPM ratio (pull-down/input).

Regarding “GATGATTGTTCTCCCAGCTGATGAATTGTCTTCTTCGAGTAAACAAATTTTCCTAATCTTTCTGTTCAAGCGCCATCTAC”, the binding signal is 1.05 RPM ratio (pull-down/input).

In the case of “GATGATTGTTCTCCCAGCTGATGAATTAGTGGGCTCGAGTAAACAAATTTTCCTAATCTTTCTGTTCAAGCGCCATCTAC”, the binding signal is 0.837 RPM ratio (pull-down/input). The value for “GATGATTGTTCTCCCAGCTGATGAATTGCACTCATCGAGTAAACAAATTTTCCTAATCTTTCTGTTCAAGCGCCATCTAC” was 1.15 RPM ratio (pull-down/input); that for “GATGATTGTTCTCCCAGCTGATGAATTTGCTAAGTCGAGTAAACAAATTTTCCTAATCTTTCTGTTCAAGCGCCATCTAC” was 0.94 RPM ratio (pull-down/input); that for “GATGATTGTTCTCCCAGCTGATGAATTACGTAAGTCGAGTAAACAAATTTTCCTAATCTTTCTGTTCAAGCGCCATCTAC” was 1.14 RPM ratio (pull-down/input). As for “GATGATTGTTCTCCCAGCTGATGAATTTTGAGTATCGAGTAAACAAATTTTCCTAATCTTTCTGTTCAAGCGCCATCTAC”, the binding signal is 1.07 RPM ratio (pull-down/input). The value for “GATGATTGTTCTCCCAGCTGATGAATTAAATTGATCGAGTAAACAAATTTTCCTAATCTTTCTGTTCAAGCGCCATCTAC” was 1.03 RPM ratio (pull-down/input); that for “GATGATTGTTCTCCCAGCTGATGAATTCTGCTCTTCGAGTAAACAAATTTTCCTAATCTTTCTGTTCAAGCGCCATCTAC” was 0.841 RPM ratio (pull-down/input); that for “GATGATTGTTCTCCCAGCTGATGAATTGTTGCATTCGAGTAAACAAATTTTCCTAATCTTTCTGTTCAAGCGCCATCTAC” was 1.87 RPM ratio (pull-down/input).

As to “GATGATTGTTCTCCCAGCTGATGAATTGACTGGTTCGAGTAAACAAATTTTCCTAATCTTTCTGTTCAAGCGCCATCTAC”, the binding signal is 0.922 RPM ratio (pull-down/input). The value for “GATGATTGTTCTCCCAGCTGATGAATTTACAACATCGAGTAAACAAATTTTCCTAATCTTTCTGTTCAAGCGCCATCTAC” was 1.67 RPM ratio (pull-down/input); that for “GATGATTGTTCTCCCAGCTGATGAATTTACCGGGTCGAGTAAACAAATTTTCCTAATCTTTCTGTTCAAGCGCCATCTAC” was 0.944 RPM ratio (pull-down/input). The value for “GATGATTGTTCTCCCAGCTGATGAATTCAAGTAATCGAGTAAACAAATTTTCCTAATCTTTCTGTTCAAGCGCCATCTAC” was 1.37 RPM ratio (pull-down/input); that for “GATGATTGTTCTCCCAGCTGATGAATTAAGGGTCTCGAGTAAACAAATTTTCCTAATCTTTCTGTTCAAGCGCCATCTAC” was 0.84 RPM ratio (pull-down/input); that for “GATGATTGTTCTCCCAGCTGATGAATTCGTAAATTCGAGTAAACAAATTTTCCTAATCTTTCTGTTCAAGCGCCATCTAC” was 1.02 RPM ratio (pull-down/input). With “GATGATTGTTCTCCCAGCTGATGAATTCTAGAAGTCGAGTAAACAAATTTTCCTAATCTTTCTGTTCAAGCGCCATCTAC”, the binding signal is 0.867 RPM ratio (pull-down/input). The value for “GATGATTGTTCTCCCAGCTGATGAATTGGCCGCCTCGAGTAAACAAATTTTCCTAATCTTTCTGTTCAAGCGCCATCTAC” was 0.831 RPM ratio (pull-down/input).

For the sequence “GATGATTGTTCTCCCAGCTGATGAATTAGGAGTCTCGAGTAAACAAATTTTCCTAATCTTTCTGTTCAAGCGCCATCTAC”, the binding signal is 0.849 RPM ratio (pull-down/input).

Turning to “GATGATTGTTCTCCCAGCTGATGAATTGGCAGTCTCGAGTAAACAAATTTTCCTAATCTTTCTGTTCAAGCGCCATCTAC”, the binding signal is 0.811 RPM ratio (pull-down/input). The value for “GATGATTGTTCTCCCAGCTGATGAATTCATCGAATCGAGTAAACAAATTTTCCTAATCTTTCTGTTCAAGCGCCATCTAC” was 0.935 RPM ratio (pull-down/input). The value for “GATGATTGTTCTCCCAGCTGATGAATTGGTTACATCGAGTAAACAAATTTTCCTAATCTTTCTGTTCAAGCGCCATCTAC” was 1.09 RPM ratio (pull-down/input); that for “GATGATTGTTCTCCCAGCTGATGAATTTAAAGCTTCGAGTAAACAAATTTTCCTAATCTTTCTGTTCAAGCGCCATCTAC” was 0.839 RPM ratio (pull-down/input).

Turning to “GATGATTGTTCTCCCAGCTGATGAATTAACCCACTCGAGTAAACAAATTTTCCTAATCTTTCTGTTCAAGCGCCATCTAC”, the binding signal was 0.883 RPM ratio (pull-down/input).

As to “GATGATTGTTCTCCCAGCTGATGAATTTGGAGAGTCGAGTAAACAAATTTTCCTAATCTTTCTGTTCAAGCGCCATCTAC”, the binding signal is 0.9 RPM ratio (pull-down/input).

For the sequence “GATGATTGTTCTCCCAGCTGATGAATTCCGTCACTCGAGTAAACAAATTTTCCTAATCTTTCTGTTCAAGCGCCATCTAC”, the binding signal was 0.773 RPM ratio (pull-down/input). For the sequence “GATGATTGTTCTCCCAGCTGATGAATTCAGACCGTCGAGTAAACAAATTTTCCTAATCTTTCTGTTCAAGCGCCATCTAC”, the binding signal was 0.827 RPM ratio (pull-down/input).

On to “GATGATTGTTCTCCCAGCTGATGAATTCACTGAGTCGAGTAAACAAATTTTCCTAATCTTTCTGTTCAAGCGCCATCTAC”, for which the binding signal was 0.811 RPM ratio (pull-down/input). The value for “GATGATTGTTCTCCCAGCTGATGAATTAACTCGATCGAGTAAACAAATTTTCCTAATCTTTCTGTTCAAGCGCCATCTAC” was 0.884 RPM ratio (pull-down/input); that for “GATGATTGTTCTCCCAGCTGATGAATTATAATCCTCGAGTAAACAAATTTTCCTAATCTTTCTGTTCAAGCGCCATCTAC” was 0.973 RPM ratio (pull-down/input).
